{"sequences": {"note": "Protein sequences, listed by entry. Tags and fused reporters are not part of them. Lines headed by an entry give the natural chain unless they say otherwise; changes in a name come on top. Residues count along the entry.", "UniProt P31266": "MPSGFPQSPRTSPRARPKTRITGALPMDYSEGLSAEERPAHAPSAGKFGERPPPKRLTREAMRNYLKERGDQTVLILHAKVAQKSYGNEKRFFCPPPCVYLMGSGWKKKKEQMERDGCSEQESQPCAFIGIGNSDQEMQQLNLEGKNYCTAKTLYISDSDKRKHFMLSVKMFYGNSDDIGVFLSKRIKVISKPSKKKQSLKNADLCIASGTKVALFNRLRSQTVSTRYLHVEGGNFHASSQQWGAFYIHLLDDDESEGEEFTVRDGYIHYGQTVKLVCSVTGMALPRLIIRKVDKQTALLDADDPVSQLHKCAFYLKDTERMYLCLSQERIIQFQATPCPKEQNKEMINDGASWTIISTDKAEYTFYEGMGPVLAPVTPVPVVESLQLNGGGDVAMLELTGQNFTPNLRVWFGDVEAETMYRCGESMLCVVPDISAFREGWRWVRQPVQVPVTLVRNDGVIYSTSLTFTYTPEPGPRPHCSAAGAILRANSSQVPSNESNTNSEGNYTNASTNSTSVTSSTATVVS", "UniProt P59178": "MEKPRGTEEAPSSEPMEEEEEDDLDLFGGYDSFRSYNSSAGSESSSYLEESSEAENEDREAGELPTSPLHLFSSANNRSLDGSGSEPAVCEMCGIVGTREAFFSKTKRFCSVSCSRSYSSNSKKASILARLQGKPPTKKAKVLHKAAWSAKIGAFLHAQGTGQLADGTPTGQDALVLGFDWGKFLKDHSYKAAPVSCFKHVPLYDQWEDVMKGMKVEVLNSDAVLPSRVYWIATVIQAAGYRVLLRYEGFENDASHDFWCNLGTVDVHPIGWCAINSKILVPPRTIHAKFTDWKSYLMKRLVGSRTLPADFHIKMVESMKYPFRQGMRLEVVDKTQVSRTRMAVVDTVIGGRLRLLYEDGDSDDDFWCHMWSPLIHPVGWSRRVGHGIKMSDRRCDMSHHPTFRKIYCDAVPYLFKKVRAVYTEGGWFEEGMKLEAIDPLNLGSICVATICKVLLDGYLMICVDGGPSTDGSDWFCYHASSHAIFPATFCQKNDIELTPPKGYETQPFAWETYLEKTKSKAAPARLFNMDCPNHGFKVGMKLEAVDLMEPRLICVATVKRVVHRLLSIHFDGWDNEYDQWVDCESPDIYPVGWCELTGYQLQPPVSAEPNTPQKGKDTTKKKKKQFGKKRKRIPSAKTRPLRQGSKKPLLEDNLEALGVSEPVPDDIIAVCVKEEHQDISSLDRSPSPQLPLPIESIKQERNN", "UniProt P61956": "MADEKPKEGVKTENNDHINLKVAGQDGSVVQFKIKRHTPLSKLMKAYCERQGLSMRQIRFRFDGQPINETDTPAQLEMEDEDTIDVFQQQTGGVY", "UniProt P55854, residues 1-92": "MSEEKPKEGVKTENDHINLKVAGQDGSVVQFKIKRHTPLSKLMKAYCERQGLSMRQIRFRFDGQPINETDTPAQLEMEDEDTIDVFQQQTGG", "UniProt P63165, residues 1-97": "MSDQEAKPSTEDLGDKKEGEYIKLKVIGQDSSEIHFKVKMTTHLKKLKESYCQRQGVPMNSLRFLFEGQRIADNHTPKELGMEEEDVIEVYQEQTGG", "UniProt Q969R5": "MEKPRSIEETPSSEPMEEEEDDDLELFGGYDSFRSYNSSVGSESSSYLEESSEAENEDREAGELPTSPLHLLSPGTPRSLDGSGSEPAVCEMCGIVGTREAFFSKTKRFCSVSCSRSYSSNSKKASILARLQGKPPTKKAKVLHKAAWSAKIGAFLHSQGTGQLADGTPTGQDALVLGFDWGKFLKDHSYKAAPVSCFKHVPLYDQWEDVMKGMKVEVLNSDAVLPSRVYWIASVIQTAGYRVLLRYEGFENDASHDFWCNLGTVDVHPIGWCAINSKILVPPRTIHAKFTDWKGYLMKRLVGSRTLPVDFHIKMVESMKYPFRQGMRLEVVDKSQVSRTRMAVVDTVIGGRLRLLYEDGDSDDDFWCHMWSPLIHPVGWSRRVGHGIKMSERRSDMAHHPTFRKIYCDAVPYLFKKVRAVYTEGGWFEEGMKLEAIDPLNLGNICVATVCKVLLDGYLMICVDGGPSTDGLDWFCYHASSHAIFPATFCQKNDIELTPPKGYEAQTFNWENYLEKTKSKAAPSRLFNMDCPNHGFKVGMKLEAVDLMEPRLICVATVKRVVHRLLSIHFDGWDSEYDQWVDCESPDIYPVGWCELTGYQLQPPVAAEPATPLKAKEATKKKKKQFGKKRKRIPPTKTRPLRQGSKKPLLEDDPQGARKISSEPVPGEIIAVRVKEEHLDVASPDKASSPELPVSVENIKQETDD", "UniProt Q06330": "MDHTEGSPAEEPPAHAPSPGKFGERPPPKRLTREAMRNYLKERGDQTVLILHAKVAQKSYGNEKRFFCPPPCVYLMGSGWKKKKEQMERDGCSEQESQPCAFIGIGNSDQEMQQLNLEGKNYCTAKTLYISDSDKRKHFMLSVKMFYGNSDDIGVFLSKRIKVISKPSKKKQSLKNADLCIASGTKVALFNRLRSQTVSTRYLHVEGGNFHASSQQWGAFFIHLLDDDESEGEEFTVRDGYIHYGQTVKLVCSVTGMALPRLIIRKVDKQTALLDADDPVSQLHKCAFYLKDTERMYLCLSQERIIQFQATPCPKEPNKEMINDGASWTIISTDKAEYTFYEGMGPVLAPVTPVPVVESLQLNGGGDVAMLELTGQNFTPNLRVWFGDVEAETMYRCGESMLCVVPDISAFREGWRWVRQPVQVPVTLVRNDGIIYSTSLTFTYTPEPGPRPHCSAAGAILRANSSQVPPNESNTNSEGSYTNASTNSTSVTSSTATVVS"}, "source": "paper PMC8325870", "about": "“SUMOylated non-canonical polycomb PRC1.6 complex as a prerequisite for recruitment of transcription factor RBPJ”", "key": {"[1]": {"molecular_target": "GFP-RBPJ wild type (mouse) (UniProt P31266)", "assay": "co-IP; HEK293T cells transfected with the GFP fusion (with or without a Flag-tagged partner); extracts (10 mM Tris/HCl pH 7.5, 150 mM NaCl, 0.5 mM EDTA, 0.5% NP-40) on GFP TRAP beads 1 h at 4 °C; Western blotting; in some panels cells treated with 10 µM ML-792 or vehicle for 24 h, or heat shocked (1 h 42 °C, 1 h recovery at 37 °C)"}, "[2]": {"molecular_target": "Endogenous L3MBTL2 (mouse Beko T-ALL cells) (mouse (endogenous in Beko)) (UniProt P59178)", "assay": "co-IP; Protein extracts of mouse Beko cell lysates immunoprecipitated with L3MBTL2 antibody or IgG as control; Western blotting with anti-L3MBTL2 and anti-RBPJ antibody; endogenous proteins"}, "GST-SUMO2": {"molecular_target": "GST-SUMO2 (UniProt P61956)", "assay": "pull-down; Modified GST pulldown: GST or GST-SUMO fusion proteins immobilized on Glutathione Sepharose beads; whole cell extract of transfected HEK293T cells added for 4 h at 4 °C; five washes in ice cold PBS; Western blotting; only the target purified"}, "GST-SUMO3": {"molecular_target": "GST-SUMO3 (UniProt P55854)", "assay": "pull-down; Modified GST pulldown: GST or GST-SUMO fusion proteins immobilized on Glutathione Sepharose beads; whole cell extract of transfected HEK293T cells added for 4 h at 4 °C; five washes in ice cold PBS; Western blotting; only the target purified"}, "GST-SUMO1": {"molecular_target": "GST-SUMO1 (UniProt P63165)", "assay": "pull-down; Modified GST pulldown: GST or GST-SUMO fusion proteins immobilized on Glutathione Sepharose beads; whole cell extract of transfected HEK293T cells added for 4 h at 4 °C; five washes in ice cold PBS; Western blotting; only the target purified"}, "[3]": {"molecular_target": "GST-RBPJ fusion protein (not stated (human or mouse cDNA cloned)) (UniProt P31266)", "assay": "pull-down; GST or GST fusion protein immobilized on Glutathione Sepharose beads; [35S] methionine-labelled protein in vitro translated in rabbit reticulocyte lysate; buffer A (40 mM HEPES pH 7.5, 0.2 mM EDTA, 5 mM MgCl2, 100 mM KCl, 0.5% NP-40) 1 h at 4 °C; washes up to 300 mM KCl; SDS-PAGE and autoradiography; only the target purified"}, "GST-L3MBTL2": {"molecular_target": "GST-L3MBTL2 (UniProt Q969R5)", "assay": "pull-down; GST or GST fusion protein immobilized on Glutathione Sepharose beads; [35S] methionine-labelled protein in vitro translated in rabbit reticulocyte lysate; buffer A (40 mM HEPES pH 7.5, 0.2 mM EDTA, 5 mM MgCl2, 100 mM KCl, 0.5% NP-40) 1 h at 4 °C; washes up to 300 mM KCl; SDS-PAGE and autoradiography; only the target purified"}}, "note": "These are yes or no findings as the source states them, for the method shown. In cells and extracts the contact can be indirect. Some entries that bind do so weakly or less than the wild type.", "data": [{"substance": "Endogenous L3MBTL2 (HEK293T) (from UniProt Q969R5 1-705)", "values": [{"measurement": "binding", "setting": "[1]", "result": "binds"}]}, {"substance": "Endogenous RBPJ (mouse Beko T-ALL cells) (from UniProt P31266 1-526)", "values": [{"measurement": "binding", "setting": "[2]", "result": "binds"}]}, {"substance": "Flag-L3MBTL2 (from UniProt Q969R5 1-705)", "values": [{"measurement": "binding", "setting": "[1]", "result": "binds"}]}, {"substance": "Flag-RBPJ (from UniProt P31266 1-526)", "values": [{"measurement": "binding", "setting": "GST-SUMO2", "result": "binds"}, {"measurement": "binding", "setting": "GST-SUMO3", "result": "binds"}, {"measurement": "binding", "setting": "GST-SUMO1", "result": "binds weakly"}]}, {"substance": "GFP-RBPJ wild type (from UniProt P31266 1-526)", "values": [{"measurement": "binding", "setting": "GST-SUMO2", "result": "binds"}]}, {"substance": "GFP-RBPJ ∆NTD mutant (from UniProt P31266 206-526) (domain or fragment)", "values": [{"measurement": "binding", "setting": "GST-SUMO2", "result": "no binding"}]}, {"substance": "L3MBTL2 ΔC (aa1-603) (from UniProt Q969R5 1-603) (domain or fragment)", "values": [{"measurement": "binding", "setting": "[3]", "result": "binds"}]}, {"substance": "L3MBTL2 ΔN (aa179-705) (from UniProt Q969R5 179-705) (domain or fragment)", "values": [{"measurement": "binding", "setting": "[3]", "result": "binds"}]}, {"substance": "[35S] methionine-labelled RBPJ (from UniProt Q06330 1-500)", "values": [{"measurement": "binding", "setting": "GST-L3MBTL2", "result": "binds"}]}]}
